In PubChem BioAssay AID1030 (National Center for Advancing Translational Sciences (NCATS), 2008):
Values joined by “and” are separate entries in the source; they are usually repeats but may differ in a detail not shown here. Identical values can stand only once. Among all 220,000 compounds or so, about 16,000 (7.3%) were called active. Inconclusive means that the source gave no clear call. Such entries were picked first, then a sample of the others. Calls come from the whole dose curve; as a rule, active = well fitted inhibition curve with a large enough effect (not every such curve was filed as active); inconclusive = small, poorly fitted or top-dose-only effect, or another doubt; inactive = no such curve, though single readings can be large or run the other way. No potency is given beside an inconclusive call; the fits are too rough. Where a structure was tested more than once in an assay, its records may differ in their call.

The compounds below were run against Aldehyde dehydrogenase 1A1 (Homo sapiens) (UniProt P00352) (assay: qHTS Assay for Inhibitors of Aldehyde Dehydrogenase 1 (ALDH1A1)). Settings: Purified ALDH1A1, NADH fluorescence, propionaldehyde substrate; series mostly up to 75.3 µM; activity, negative = inhibition: at the top concentration.
Potency is the fitted concentration of half-maximal effect; tags give direction and shape of the fitted curve.
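Throughout, for activity, negative = inhibition: plate controls were no enzyme wells and a reference inhibitor.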

Sequence of UniProt P00352 (P00352 whole entry, looked up): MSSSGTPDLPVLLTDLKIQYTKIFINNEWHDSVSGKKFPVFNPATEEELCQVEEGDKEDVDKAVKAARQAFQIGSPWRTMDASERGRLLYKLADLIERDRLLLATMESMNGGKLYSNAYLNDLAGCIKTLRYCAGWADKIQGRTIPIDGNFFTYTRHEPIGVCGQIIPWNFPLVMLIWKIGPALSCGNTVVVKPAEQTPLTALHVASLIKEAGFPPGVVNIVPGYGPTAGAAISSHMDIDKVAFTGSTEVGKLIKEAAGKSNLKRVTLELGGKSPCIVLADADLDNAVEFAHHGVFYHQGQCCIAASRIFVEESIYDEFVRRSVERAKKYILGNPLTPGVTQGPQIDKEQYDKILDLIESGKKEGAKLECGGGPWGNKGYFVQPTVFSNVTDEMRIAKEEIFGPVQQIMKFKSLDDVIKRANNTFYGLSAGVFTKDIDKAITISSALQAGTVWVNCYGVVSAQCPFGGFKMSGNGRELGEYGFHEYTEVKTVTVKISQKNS

SMILES | activity, negative = inhibition | Potency
COC(=O)c1ccccc1-n1c(C)nc2ccccc2c1=O | inactive: 7.86% | 
Cc1cc(OCc2cc(C(=O)O)oc2C)c2c3c(c(=O)oc2c1)CCCC3 |  | inconclusive [inhibitor, partial curve]
CC(C)NC(=O)N1CCC2(CC1)CCN(C(=O)Oc1ccccc1)CC2 | inactive: 8.15% | 
Nc1nc2c(ncn2[C@@H]2O[C@H](CO)[C@@H](O)[C@@H]2O)c(=[SH+])[nH]1.O=[N+]([O-])c1ccc(O)[c]([Hg])c1 |  | active: 0.0501 µM
Oc1cccc2nc3ccccc3nc12 |  | inconclusive [inhibitor, partial curve]
COc1cc(/C=C2/C(=O)N(c3ccccc3)N=C2C)ccc1OS(=O)(=O)c1ccccc1 |  | inconclusive [inhibitor, partial curve]
Cc1cc(N2CCCCC2)ccc1C=C1C(=O)N(C)C(=S)N(C)C1=O |  | active: 31.6 µM
CNC(=O)Oc1cccc2c1OC(C)(C)O2 |  | inconclusive [inhibitor, single point]
Nc1cc(Cl)ccc1O |  | active: 8.91 µM
CC(C)(C)c1cc([N+](=O)[O-])cc(C(C)(C)C)c1O | inactive: -2.68% | 
CCCCCCOC(=O)c1ccccc1N |  | inconclusive [inhibitor, single point]
O=C(c1ccc(Cl)cc1)C1CCCN(C2CCSCC2)C1 (stereo not given) | inactive: 4.61% | 
C=CCN1C(=O)NC(=O)/C(=C/c2ccc(N(C)C)c(Br)c2)C1=O |  | active: 12.6 µM
CCCCCCCCCCCCCC(=O)O[C@@H]1[C@@H](C)[C@@]2(O)[C@@H](C=C(CO)C[C@@]3(O)C(=O)C(C)=C[C@@H]23)C2C(C)(C)[C@@]21OC(C)=O (stereo not given in full) | inactive: -14.5% | 
Nc1ccccc1C(=O)OCC(=O)c1ccc2c(c1)OCCO2 |  | inconclusive [inhibitor, single point]
O=C1NC(=O)C(=Cc2ccc3c(c2)OCO3)C(=O)N1 |  | inconclusive [inhibitor, single point]
CN1CCN(Cc2cc(C(C)(C)C)c(O)c(C(C)(C)C)c2)CC1 |  | active: 22.4 µM
CN1CC[C@@]2(C)c3cc(OC(=O)Nc4ccccc4)ccc3N(C)[C@@H]12 |  | active: 11.2 µM
CC1(C)CC(=O)C2=C(C1)OC(N)=C([N+](=O)[O-])C2c1ccc(C#N)s1 (stereo not given) |  | active: 20 µM
COc1ccc(-n2c(/C=C3/C(=O)Nc4ccccc43)nc3ccccc3c2=O)cc1 | inactive: 20.8% | 
O=C(O)CCn1cc(C=C2C(=O)NC(=S)NC2=O)c(-c2cccc(Cl)c2)n1 |  | active: 3.55 µM
CC(=O)N1CCC2(CC1)CC(=O)c1cc(OCC(=O)N3CCC4(CC3)OCCO4)ccc1O2 |  | inconclusive [inhibitor, partial curve]
O=C1NC(=O)C2(Cc3ccccc3N3CCCC32)C(=O)N1c1ccc(Cl)cc1 (stereo not given) |  | inconclusive [inhibitor, partial curve]
CCCCNC(=O)n1c(NC(=O)OC)nc2ccccc21 |  | inconclusive [inhibitor, single point]
CC1=C(C(=O)OC(C)C)[C@]2(C(=O)N(CC(N)=O)c3ccccc32)C(C#N)=C(N)O1 | inactive: 13.4% | 

SMILES | activity, negative = inhibition | Potency
O=C(c1ccncc1)N1CCC2(CC1)CN(Cc1ccccc1)C2 | inactive: -1.07% | 
C/C(=N\N1CCCCCC1)c1c(O)n(-c2ccccc2)c(=O)[nH]c1=O |  | inconclusive [inhibitor, single point]
CSCCC(N=Cc1c(O)n(-c2ccc(Br)cc2)c(=O)[nH]c1=O)C(=O)OC(C)(C)C (stereo not given) |  | inconclusive [inhibitor, full curve]
COc1cc(N2CCOCC2)ccc1/C=C1\C(=O)NC(=O)N(Cc2ccc3c(c2)OCO3)C1=O |  | inconclusive [inhibitor, partial curve, poor fit]
Cc1c(N=Cc2c(O)n(Cc3ccccc3)c(=O)[nH]c2=O)c(=O)n(-c2ccccc2)n1C | inactive: -12.5% | 
CC(C)(Cl)Cl | inactive: 3.15% | 
CC(=O)c1ccc(OC(=O)N(C)c2ccccc2)cc1 | inactive: -5.27% | 
CCN(CC)c1ccc(CN(C)CCc2ccc(OC)c(OC)c2)cc1 |  | active: 12.6 µM
O=C(Cc1ccccc1)N1CCN(C2CCCCCC2)CC1 |  | inconclusive [inhibitor, single point]
Cn1cc(/C=C(\C(=O)O)C(C(=O)O)=C2CCCCC2)c2ccccc21 |  | inconclusive [inhibitor, single point]
CN1C(=O)C(=Cc2c(OCc3cnc(Cl)s3)ccc3ccccc23)C(=O)N(C)C1=O |  | active: 2.24 µM
CCCCC/C=C\C/C=C\C/C=C\C/C=C\CCCC(=O)NCCO |  | inactive and active: 10 µM
CSc1ccc(C(=O)C2CCCN(CCCn3cccn3)C2)cc1 (stereo not given) |  | inconclusive [inhibitor, single point]
COc1ccc(C(=O)c2c(C)n(CCN3CCOCC3)c3cc(I)ccc23)cc1 |  | active: 5.01 µM
Cn1c(C(=O)N2CCC3(CC2)OCCO3)cc2c(=O)n(C)c3ccccc3c21 |  | inconclusive [inhibitor, single point]
CN1CCN(C(=O)COc2ccc(Oc3ccccc3)cc2)CC1 | inactive: -3.34% | 
O=c1c2ccccc2nc(-c2ccccc2)n1-c1ccccn1 | inactive: -7.99% | 
CCN(C(=O)CSc1ncccc1C(=O)Oc1cccc([N+](=O)[O-])c1)c1cccc(C)c1 |  | inconclusive [inhibitor, single point]
COC(=O)C(C#N)C(c1cccnc1)c1c(C)[nH][nH]c1=O (stereo not given) |  | inconclusive [inhibitor, single point]
Cc1ccc(N2C(=O)/C(=C/N3CCN(C(=O)c4ccco4)CC3)C(=O)NC2=S)cc1C |  | inconclusive [inhibitor, single point]
COc1ccc(CCn2c(O)c(C=NC3CC3)c(=O)[nH]c2=O)cc1OC | inactive: 11% | 
O=C(Cc1ccc(Br)cc1)N1CCN(Cc2ccccc2)CC1 |  | inconclusive [inhibitor, single point]
Nc1ncnc2c1ncn2[C@@H]1O[C@@H]2CO[P@](=O)(S)O[C@H]2[C@H]1O |  | inconclusive [inhibitor, single point]
COc1ccc(C(=O)C2CCCN(Cc3ccc(C)s3)C2)c(OC)c1 (stereo not given) | inactive: -5.14% | 
O=C1NC(=O)N(c2ccc(F)cc2)C(=O)/C1=C/c1ccsc1 |  | inconclusive [inhibitor, single point]

SMILES | activity, negative = inhibition | Potency
CC(C)CNC(=O)c1c(N)n(Cc2ccc3c(c2)OCO3)c2nc3ccccc3nc12 |  | inconclusive [inhibitor, partial curve]
Cc1nn(CCC#N)c2c1P(=S)(N1CCCC1)OC(c1ccc(F)cc1)=N2 (stereo not given) |  | active: 7.08 µM
O=C(O)CNC(=O)c1ccc([As](=O)(O)O)cc1 | inactive: 4.16% [at 13.5 µM] | 
CN1C(=O)C(=Cc2ccccc2OCc2ccccc2Cl)C(=O)N(C)C1=O |  | active: 2.82 µM
Cc1cc(OC(=O)c2ccco2)c2c3c(c(=O)oc2c1)CCCC3 |  | active: 14.1 µM
Cc1noc(C(=O)Nc2sc3c(c2C#N)CCC3)c1Cl |  | active: 12.6 µM
CCOC(=O)C1(CCc2ccccc2)CCN(Cc2csc(C(C)=O)c2)CC1 |  | inconclusive [inhibitor, partial curve]
Cc1ccc(-c2nc(CS(=O)CC(=O)N3CCC4(CC3)OCCO4)c(C)o2)cc1 (stereo not given) |  | inconclusive [inhibitor, single point]
O=C(O)c1ccccc1-c1c2cc(Br)c(=O)cc-2oc2[c]([Hg])c(O)c(Br)cc12 |  | active: 4.47 µM
CC(C)NC(=O)Cn1cc(C(=O)c2ccccc2F)c2ccccc21 |  | inconclusive [inhibitor, partial curve]
O=C(OCC(=O)N1CCN(c2ccccc2)CC1)c1cnc(Cl)c(Cl)c1 |  | active: 8.91 µM
Cc1ccc(-n2c(O)c(/C=N/c3ncc(Br)cc3Br)c(=O)[nH]c2=O)cc1 |  | inconclusive [inhibitor, single point]
Cn1ccnc1P(=S)(c1nccn1C)N1CCOCC1 |  | active: 28.2 µM
CC(=O)/C=C/c1ccccc1 | inactive: 1.51% | 
Cc1c(C(=O)NCCC2=CCCCC2)oc2ccc(S(=O)(=O)N3CCC4(CC3)OCCO4)cc12 |  | active: 22.4 µM
Cc1cc(=O)oc2c1c(C)nn2-c1nn[nH]n1 |  | inconclusive [inhibitor, single point]
CN1CCC2(CC1)CCN(C(=O)c1ccco1)CC2 | inactive: 5.29% | 
C[C@H]1C[C@@H](C)C(=O)[C@@H]([C@H](O)CC2CC(=O)NC(=O)C2)C1 |  | inactive
Cc1ccc(Cn2nnnc2CN2CCC(n3nnc4cc(C)ccc43)CC2)cc1 |  | inconclusive [inhibitor, single point]
OCCBr | inactive: 5.03% | 
CC1(C)C(c2ccccc2)=NC(c2cccnc2)N1O (stereo not given) |  | inconclusive [inhibitor, single point]
S=C(S)N1CCCC1 |  | active: 355 nM and active: 794 nM
CC(=O)CC(c1ccccc1)c1c(O)c2ccccc2oc1=O (stereo not given) |  | inconclusive [inhibitor, single point]
Nc1c(C(=O)NCc2ccco2)c2nc3ccccc3nc2n1CCN1CCOCC1 |  | inconclusive [inhibitor, partial curve]
COC(=O)C1=C(C)N(Cc2ccco2)C(=O)/C1=C\c1ccc(N(C)C)cc1 |  | inconclusive [inhibitor, partial curve, poor fit]
